The values that follow come from the RNAGym collection of RNA variant scans (doi:10.1093/nar/gkz1192).

B1: CPEB3 Ribozyme (parent)
chain: UAACAGGGGGCCACAGCAGAAGCGUUCACGUCGCAGCCCCUGUCAGAUUCUGGUGAAUCUGCGAAUUCUGCUGUAUAUCUC

Read counts are not given, so values of variants with three or more changes are uncertain.

The variants in the data set derive from B1. The experiment in a line: self-cleavage, relative activity (ratio to wild type); higher = more cleavage; in vitro, sequencing. Summed up: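 After error-prone PCR and barcoding, CPEB3 ribozyme mutant libraries were transcribed with T7 RNA polymerase at 37°C for 5 hours, then given 15 min with DNase I before an EDTA stop, and they cleaved during both steps. Reverse transcription with template switching preceded Illumina sequencing. Relative activity divides a variant's cleaved/total read fraction by the unmutated ribozyme's. At least 5 reads were required per variant, and three batches were averaged.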
Take UAACAGGGGGCCGCAGCAGAAGCGUUCACGUCGCAGCCCCCGUCAGAUUCUGGUGAAUCUGCGAAUUCUGCUGUAUAUCAC [A13G U41C U80A]: the self-cleavage was 1.08.
For UAACAGGGGGCCGCAGCAGAAGCGUUCACGCCGCAGCCCCUGUCAGAUUCUGGUGAAUCUGCGAAUUCUGCCGCAUAUCUC [A13G U31C U72C U74C], the self-cleavage came to 0.59.
Take UAACAGGGGGCCGCAGCAGAAGCGUUCACGUCGCAGCCCCUGACAGAUUCCGGUGAAUCUGCGAAUUCAGCUGUAUAUCUC [A13G U43A U51C U69A]: the self-cleavage was 0.47.
As to UAACAGGGGGCCGCAGCAGAAGCGUUCACGUCGCAGCCCCUGCCAGAUUCUGGUGAAUCUGCGAAAUCUGCUGUAUAUCUC [A13G U43C U66A], the self-cleavage was determined as 0.13.
For UAACAGGGGGCCGCAGCAGAAGCGUUCACGCCGCAGCUCCUGUCAGAUUCUGGUGUAUCUGCGAAUUCUGCUGCAUAUCUC [A13G U31C C38U A56U U74C], the self-cleavage is 0.32.
As for UAACAGGGGGCCGCAGCAGAAGCGUUCACGCCGCGGCCCCUGUCAGAUUCUGGCGAAUCUGCGAACUCUGCUGUAUAUCUC [A13G U31C A35G U54C U66C], the figure is 1.04.
As for UAACAGGGGGCCGCAGCAGAAGCGUCCACGUCGCAGCCCCUGUCAGAUUCUGGUGAAUCAGCGAGUUCAGCUGUAUAUCUC [A13G U26C U60A A65G U69A], the figure is 0.05; as for UAACAGGGGGCCGCAGCAGAAGCGUUCACGUCGCAGCCCCCGACAGAUUCUGGUGAAUCUGCGAAUUCUGCUGAAUAUCUC [A13G U41C U43A U74A], 0.54.
For the variant UAACAGGGGGCCGCAGCAGAAGCGUUCACGUCGCAGCCCCGGUCAGAUUCUGGUGGAUCUGCGAAUACUGCUGUAUAUCAC [A13G U41G A56G U67A U80A], the self-cleavage is 0.13.
With UAACAGGGGGCCGCAGCAGAAGCGUUCACGUCGCAGCCCCAGUCAGAUUCUGGUGAAUCUGCGAAUUCUGCCGUAUACCAC [A13G U41A U72C U78C U80A], the self-cleavage was 0.07.
UAACAGGGGGCCGCAGCAGAAGCGUUCACGACGCAGCCCUUGCCAGAUUCUGGUGAAUCUGCGAAUUCUGCUGUAUAUCUC [A13G U31A C40U U43C]: the self-cleavage was found to be 0.2.
Regarding UAACAGGGGGCCGCAGCAGAAGCGUUCACGCCGCCGCCCCCGUCAGAUUCUGGUGAAUCUGCGAAUUCUGCUGUAUACCUC [A13G U31C A35C U41C U78C], the self-cleavage is 0.28.
As to UAACAGGGGGCCGCAGCAGAAGCGUUCACGCCGCAGCCCCUGUCAGAUUCUGGUGAAUCUGCGGAUUCGGCUGUAUAUCUC [A13G U31C A64G U69G], the self-cleavage turned out to be 0.19.
For the variant UAACAGGGGGCCGCAGCAGAAGCGUUCACGCCGCAGCCCCUGUCAGAUUCUGGUGAAUCUGCGAAUUCUGCAGUAUAUCCC [A13G U31C U72A U80C], the self-cleavage worked out at 0.52.
For UAACAGGGGGCCGCAGCAGAAGCGUUCACGACGCAGCCCCUGUCAGAUUCUGGUGAAUCUGCGAAUUCCGCCGUAUAUCUC [A13G U31A U69C U72C], the self-cleavage is 0.18.
As to UAACAGGGGGCCGCAGCAGAAGCGUCCACGUCGCAGCCCCUGUCAGAUUCUGGUGAAUCUGCGAAUUCUGCUGUAUACCUC [A13G U26C U78C], the self-cleavage stood at 0.22.
UAACAGGGGGCCGCAGCAGAAGCGUUCACGCCGCAGCCCCUGUCAGAUUCUGGUGAAUCUGCGAAUUCUGCUGUAUAACUC [A13G U31C U78A]: the self-cleavage was determined as 0.61.
UAACAGGGGGCCGCAGCAGAAGCGUGCACGUCGCAGCCCCUGUCAGAUUCUGGUGAAUCUGCGAAUUCCGCUGUAUAUCUC [A13G U26G U69C]: the self-cleavage was determined as 0.07.
UAACAGGGGGCCGCAGCAGAAGCGUUCACGCCGCAGCCCCUGUCAAAUUCUGGUGAAUCUGCGAAUUCUGCUGUAUAUCUC [A13G U31C G46A]: the self-cleavage was found to be 0.24.
As to UAACAGGGGGCCGCAGCAGAAGCGUUCACGUCGCAGCCCCUGACAGAUUCUGGUGAAUCCGCGAAUUCUGCUGUAUAUCUC [A13G U43A U60C], the self-cleavage was found to be 0.29.
Regarding UAACAGGGGGCCGCAGCAGAAGCGUUCACGUCGCAGCCCCUGCCAGAUUCUGGUGAAACUGCGAAUUCUGCUGUAUAUCUC [A13G U43C U58A], the self-cleavage came to 0.09.
As for UAACAGGGGGCCGCAGCAGAAGCGUUCACGUCGCAGCCCCCGUCAGGUUCUGGUGAAUCUGCGAAAUCUGCUGUAUAUCUC [A13G U41C A47G U66A], the self-cleavage came to 0.31.
As for UAACAGGGGGCCGCAGCAGAAGCGUUCACGGCUCGGCCCCUGCCAGAUUCUGGUGAAUCUGCGAAUUCCGCUGUAUAUCUC [A13G U31G G33U A35G U43C U69C], the self-cleavage stood at 0.3.
Turning to UAACAGGGGGCCGCAGCAGAAGCGUUCACGACGCAGCCCCUGUCAGAUUCUGGUGAAUCGGCGAAUUCUGCUGUGUAUCUC [A13G U31A U60G A75G], the self-cleavage was 0.15.
As for UAACAGGGGGCCGCAGCAGAAGCGUGCACGUCGCAGCCCCUGUCAGAUUCUGGUGAAUCUGCGAAUUCUGCAGUAUAUCUC [A13G U26G U72A], the figure is 0.15; as for UAACAGGGGGCCGCAGCAGAAGCGUUCACGUCGCAGCCCCCGUCAGACUCUGGUGAAUCUGCGAAUUCUGCUGUAUAUCUC [A13G U41C U48C], 0.4.
As to UAACAGGGGGCCGCAGCAGAAGCGUUCACGCCGCAGCCCCUGUCAGAUUCUGGUGAAUCUGCGGAUUCUGCUGUAUAUCUC [A13G U31C A64G], the self-cleavage worked out at 0.31.
On to UAACAGGGGGCCGCAGCAGAAGCGUUCACGACGCAGCCCCUGCCAGAUCCUGGUGAAUCUGCGAAUUCUGCUGUGUAUCCC [A13G U31A U43C U49C A75G U80C], for which the self-cleavage was determined as 0.33.
As for UAACAGGGGGCCGCAGCAGAAGCGUUCACGCCGCAGCCCCUGUCAGACUCUGGUGAAUCUGCGAAUUCUGCUGUAUAUCUC [A13G U31C U48C], the figure is 0.27.
Take UAACAGGGGGCCGCAGCAGAAGCGUUCACGACGCAGCCCAUGUCAGAUUCUGGUGAAUCUGCGAAUUCUGCUGUAUAUCUC [A13G U31A C40A]: the self-cleavage is 0.28.
For the variant UAACAGGGGGCCGCAGCAGAAGCGUUCACGACGCGGCCCCUGUCAGAUUCUGGUGAAUCUGCGAAUUCUGCUGUGUACCUC [A13G U31A A35G A75G U78C], the self-cleavage was determined as 0.92.
Regarding UAACAGGGGGCCGCAGCAGAAGCGUUCACGCCGCAGCCCCUGUCAGAUUCUGGUGAAUCCGCAAAUUCUGCUGUACAUCCC [A13G U31C U60C G63A U76C U80C], the self-cleavage worked out at 0.12.
In the case of UAACAGGGGGCCGCAGCAGAAGCGUUCACGACGCAGCCCCUGUCAGAUUCUGGGGAAUCUGCGAACUCUGCUGUAUAACUC [A13G U31A U54G U66C U78A], the self-cleavage was found to be 0.37.
UAACAGGGGGCCGCAGCAGAAGCGUUCACGCCGCAGCCCCUGUCAGAUUCUGGCGAAUCAGCGAAUUCUGCCGCAUAUCUC [A13G U31C U54C U60A U72C U74C]: the self-cleavage amounted to 0.26.
